This note sets out measurements from the RNAGym collection of RNA variant scans (doi:10.1073/pnas.2313332121).

Variants at the floor of the assay are shown more often than the library holds them.

B1: TPR 5TU (parent)
chain: GGAUCUUCUCGAUCUAACAAAAAAGACAAAUCUGCCACAAAGCUUGAGAGCAUCUUCGGAUGCAGAGGCGGCAGCCUUCGGUGGCGCGAUAGCGCCAACGUUCUCAACUAUGACACGCAAAACGCGUGCUCCGUUGAAUGGAGUUUAUCAUG

In the data set the parent is B1. In words: polymerase ribozyme fitness, log enrichment relative to wild type (log ratio); higher = more active; in vitro selection for triplet polymerase activity. The gist of the method:
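Mutant libraries of both subunits of a heterodimeric triplet polymerase ribozyme were PCR-built, transcribed, and selected once in triplicate, with frozen incubation at −7 °C and capture of gel-excised extended constructs on streptavidin beads before RT-PCR. Illumina sequencing of input and output libraries was filtered to genotypes with ≥10 input reads and ≥1 read per output. Fitness is the logarithm of genotype enrichment over wild-type enrichment, using inverse-variance-weighted replicate averages. The logarithm is base 2.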
As for GGAUCUUCUCGAUCUAACAAAAAAUACAAAUCUGCCACAAAGCUUGAGAGCAUCUUCGGAUGCAGAGGCGGCAGCCUUCGGUGGGGCGAUAGCGCGAACGUGCUCAACUAUGACACGCAAAACGCGUGCUCCGUUGAAUGGAGUUUAUCAUG [G25U C85G C96G U102G], the “polymerase ribozyme fitness (log ratio)” value is not above -4.2. For GGAUCUUCUCGAUCUAACAAAAAAUACAAAUCUGCCAUAAAGCUUGUGAGCAUCUGCGGAAGCACAGGCGGCAGCCUUGGGUGGCGCGAUAGCGCCAACGUUGUCAACUAUGACACGCAAAACGCGUGCUCCGAUGAAUGGAGUUUAUCAUG [G25U C38U A47U U56G U61A G65C C79G C103G U134A], the “polymerase ribozyme fitness (log ratio)” value was not above -4.2. Consider GGAUCUUCUCGAUCUAACAAAAAAUACAAAUUUGCCACAUAGCUUGAGAGCAUCUACGGAUGCAGAGGCGGCAGCCUUCCGUGGAGAGAUAGCGCCAACGUUCUCAACUAUGACAGGCAAAACGCGUGCUCCGUUGAAUGGAGUUGAUCUUG [G25U C32U A40U U56A G80C C85A C87A C116G U146G A150U], for which the “polymerase ribozyme fitness (log ratio)” value was not above -4.2. The same measure for GGAUCUUCUCGAUCUAACAAAAAAUAAAAAUCUGCCACAAAGCUUGAGAGCAUCUUCGGAUGCAGAGGCGGCAGCCUUCGAUGGCGCGAUAGCGGCAACGUUCUCAACUAUGACACGCAAAACGCGUGCUCCGUUGAAUGGAGUUUAUCAUG [G25U C27A G81A C95G]: not above -4.2. The same measure for GGAUCUUCUCGAUCUAACAAAAAAUACAAAUCUGCCACAACGCUUGAGAGCAUCUUCGGAUGCAGAGGCGGCAGCCUUCGGUGGCGCGAUAGCGCCAACGUUCUCAACUAUGACACGCAAAACGCGUGCGCCGUUGAAUGGAGUUUAUCAUG [G25U A41C U130G]: not above -4.2; for GGAUCUUCUCGAUCUAACAAAAAACACAAAUCUGCCACAAAGCUUGAGAGCAUCUUCGGAAGCAGAGGCGGCAGCCUUCGGUGGCGUGAUAGCGCCAACGUUUUCAACGAUGACACGCAAAACGCGUGCUCCGUUGAAUGAAGUUCAUCAUG [G25C U61A C87U C103U U109G G141A U146C]: not above -4.2; for GGAUCUUCUCGAUCUAACAAAAAAUACAAAUCUGCCACAAAGCUUGAGAGCAUCUUCGGAUGCAGCGGUGGCAGCCUUCGGUGGCGCGAUGGCGCCAACGUUAUCAACUAUGACACGCAAAACGCGUGCUCCGUUGAAUGGAGUUUAACAUG [G25U A66C C69U A91G C103A U148A]: not above -4.2. The value for GGAUCUUCUCGAUCUAACAAAAAACACAAAUCUGCCACAAAGCUUGAGAGCAUCUUCGGAUGCAGAGGCGGCAGCCUUCGGUGGCGCGAGAGCGCCAACGUUCUCAACUAUGACACGCAAAACGCGUGCUCCGUUGAAUGGCGUUUAUCAUG [G25C U90G A142C] was not above -4.2; that for GGAUCUUCUCGAUCUAACAAAAAAUACAAUUCUGCCACAAAGCUUGAGAGCAUCUUCGGAUGCAGAGGCGGCCGCCUUCGGUGGCGCGAUAGUGCCAACGUUCUCAACUAUGACACGCAAAACGCGUGCUCCGUUGAGUGGAGUUUAUCAUG [G25U A30U A73C C93U A138G] was not above -4.2; that for GGAUCUUCUCGAUCUAACAAAAAAUACAAAUCUGGCACAGAGCUUGUGAGCAUCUUCGGAUGCAGAGGCGGCAGCCUUCGGUGGCGCGAUCGCGCCAACGUUCUCAGCUAUGACACGCAAAACGCGUGCUCCCUUGAAUGGAGUUUAUCAUG [G25U C35G A40G A47U A91C A107G G133C] was not above -4.2. Regarding GGAUCUUCUCGAUCUAACAAAAAACACAAAUCUGCCACAAAGCUAGAGAGCAUCUUCGGAUGCAGAGGCGGUAGCAUUCGCUGGCGGGAUAACGCCAACGUUCUCAAAUAUGACACGCAAAACGCGUGCUCCGUUGAAUGAAGUUUAUCAUG [G25C U45A C72U C76A G81C C87G G92A C108A G141A], the “polymerase ribozyme fitness (log ratio)” value was not above -4.2. The value for GGAUCUUCUCGAUCUAACAAAAAAUACAAAUCUGCCACAAAGCUUGAGAGCAUCUUCGGAUGCAGAGGCGGCAGCCUUCGGUGGGGCGAUAGCGCCAACGUUCUCAACUAUGACACGCAAAACGCGUGCUCGGUUGAAUGGAGUUUAUCAUG [G25U C85G C132G] was not above -4.2; that for GGAUCUUCUCGAUCUAACAAAAAAUACAAAUCUGCCAAAAAGCUUUAGAGCAUCUGCGGAUGCAGAGGCGGCAGCCUUCGGUGGCGCGAUAGCGCCAACGUUCUCAACUAUGACACGCAAAACGCGUGCUCCGUUGAAUGGAGUUUACCAUG [G25U C38A G46U U56G U148C] was not above -4.2.

GGAUCUUCUCGAUCUAACAAAAAAUACUAAUCUGCCACAAAGCUUGAGAGCAUUUUCGGAUGCAGAGGCGGCAGCCUUCGGUGGCGUGAUAGCGCCAACGUUCUCAACUAUGACACGCAAAACGCGUGCUCCGUUGAACGGAGUUUAUCAUG [G25U A28U C54U C87U U139C]: the “polymerase ribozyme fitness (log ratio)” value was not above -4.2. The value for GGAUCUUCUCGAUCUAACAAAAAAUGCAAAUCUGCCACAAAGCUUGAGACCAUCUUCGGAUGCAGAGGUGGCAGCCUUCGGUGGCGCGAUAGCCCCAACGUUCUCAACUAUGAAACGCAAAACGCGUGCUCCGUUGAAUGGAUUUUAUCAUG [G25U A26G G50C C69U G94C C114A G143U] was not above -4.2. The value for GGAUCUUCUCGAUCUAACAAAAAAUGCAAAUCUGCCACAAAGCUUGAGAGCAUCUUCGAAUGCAGAGGCGGCAGCCUUCGGUGGCGCGAUAGAGCCAACGUUCUCAACUAUGACACGCAAAACGCGUGCUCCGUUGAAUGGAGUUUAUCAUG [G25U A26G G59A C93A] was not above -4.2. Regarding GGAUCUUCUCGAUCUAACAAAAAAUACAAAUCUGCCACAAAGCUUGAGAGCAUCUUCGGAUGCAGAGGGGGCAGCCUUCGGUUGCGCGAUAGCGUCAACGUUCUCAACUAUGACACGCAAAACGCGUGCUCCGUUGAAUGGAGUUUAUCAUG [G25U C69G G83U C95U], the “polymerase ribozyme fitness (log ratio)” value is -3.

GGAUCUUCUCGAUCUAACAAAAAAUCCAAAUCUGCCACAAAGCUUGAGAGCAUCUUCGGAUGCAGAGGCGGCAGCCUUCGGUGGGGCGAUAGCGCCAACGUUCUCAACUAUGACACGCUAAACGCGUGCUCCGUUGAAUGGAGUUUAUCAUG [G25U A26C C85G A119U]: the “polymerase ribozyme fitness (log ratio)” value is not above -4.2.

For GGAUCUUCUCGAUCUAACAAAAAAUACAAAUCUGACACAAGGCUUGAGAGCAUUUUCGGAUGCAGAGGCGGCAGCCUUCGGUGGCGUGAUAGCGUCAACGUUCUCAACUAUGACACGCAAAACGCGUGCUCCGUUGAAUGGAGUUUAUCAUG [G25U C35A A41G C54U C87U C95U], the “polymerase ribozyme fitness (log ratio)” value is -3.99.
